Results on 57 compounds are retold here after article PMC4336329 (PLoS ONE, 2015).

In all, about 310,000 compounds went through this assay and about 14,000 (4.5%) showed an effect of 50% or more. The effect is printed as a negative number. The list shows a part of the results.
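Also: peak tail current of the secondary pulse compared with the same well before compound.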

Chain of human ether-à-go-go-related gene (hERG) potassium channel (Q12809 whole entry, looked up): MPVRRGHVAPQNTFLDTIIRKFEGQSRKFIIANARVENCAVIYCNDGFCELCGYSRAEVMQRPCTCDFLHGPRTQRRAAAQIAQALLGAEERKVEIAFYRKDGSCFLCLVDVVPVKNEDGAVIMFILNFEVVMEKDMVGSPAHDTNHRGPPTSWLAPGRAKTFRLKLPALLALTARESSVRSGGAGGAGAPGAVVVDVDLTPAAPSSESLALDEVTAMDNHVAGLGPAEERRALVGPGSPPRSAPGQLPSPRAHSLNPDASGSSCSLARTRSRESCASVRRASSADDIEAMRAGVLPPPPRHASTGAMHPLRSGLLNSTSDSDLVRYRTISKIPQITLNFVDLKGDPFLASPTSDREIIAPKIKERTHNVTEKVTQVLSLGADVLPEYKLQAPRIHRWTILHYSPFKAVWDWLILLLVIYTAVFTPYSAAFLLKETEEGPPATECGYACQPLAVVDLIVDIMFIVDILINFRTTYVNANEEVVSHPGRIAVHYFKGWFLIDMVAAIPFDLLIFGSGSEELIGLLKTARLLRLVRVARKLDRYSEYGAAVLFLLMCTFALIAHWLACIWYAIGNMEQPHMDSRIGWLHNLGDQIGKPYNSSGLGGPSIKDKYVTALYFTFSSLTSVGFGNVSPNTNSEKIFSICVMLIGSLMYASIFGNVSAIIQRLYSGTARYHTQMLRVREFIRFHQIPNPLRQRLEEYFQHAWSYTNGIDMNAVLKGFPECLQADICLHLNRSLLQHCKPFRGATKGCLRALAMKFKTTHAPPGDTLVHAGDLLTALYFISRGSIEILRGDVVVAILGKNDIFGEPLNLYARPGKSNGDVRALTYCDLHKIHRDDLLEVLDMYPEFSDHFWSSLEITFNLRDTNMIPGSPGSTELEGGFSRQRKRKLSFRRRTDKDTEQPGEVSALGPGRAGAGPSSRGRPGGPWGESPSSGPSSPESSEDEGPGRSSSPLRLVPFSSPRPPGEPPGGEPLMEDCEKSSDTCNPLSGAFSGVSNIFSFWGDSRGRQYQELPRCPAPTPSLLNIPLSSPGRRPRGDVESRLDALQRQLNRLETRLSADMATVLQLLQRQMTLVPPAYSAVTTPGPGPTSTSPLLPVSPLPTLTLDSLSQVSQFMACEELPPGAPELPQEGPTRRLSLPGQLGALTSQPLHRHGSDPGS

This test has as its target human ether-à-go-go-related gene (hERG) potassium channel (human, UniProt Q12809). Description: primary screen, population patch clamp on CHO cells stably expressing hERG.
Take `O=c1c2c3c(sc2nc(NCCOCCO)n1Cc1ccco1)CCCCC3`: the “hERG current change (%, negative = inhibition) at 10uM” value is -6.8%. For `Cc1cccc(-n2cc(C#N)c(=O)[nH]c2=O)n1` the value was 19.3%. With `COC(=O)c1cn(C(=O)c2cc(OC)cc(OC)c2)c2ccccc12`, the “hERG current change (%, negative = inhibition) at 10uM” value came to 6.84%. The result for `O=C(OCC(=O)N1CCN(C(=O)c2ccco2)CC1)c1ccccc1O` reads -18.2%.

On to `C=CCSc1nc(=O)n2cccc(C)c2n1`, for which the “hERG current change (%, negative = inhibition) at 10uM” value is -18.7%. The result for `COc1ccc2c(CC(=O)N(C)CC3COc4ccccc4O3)coc2c1` (stereo not drawn) reads -0.947%; that for `NC(=O)c1ccc(NC(=O)COC(=O)CCC(=O)c2ccc(Cl)cc2)cc1`, 7.31%.

With `CCN(CC)S(=O)(=O)c1ccc2c(c1)N(CC(=O)NCCc1ccc(S(N)(=O)=O)cc1)C(=O)CO2`, the “hERG current change (%, negative = inhibition) at 10uM” value is on record as -1.7%. For `CCN(CC)c1ccc(NC(=O)c2ccc3c(c2)OCO3)c(C)c1` the value was 19.5%. For `CCOc1ccc2[nH]c3c(=O)n(CCc4ccc(OC)cc4)cnc3c2c1` the value was -22.1%; for `CCC(=O)Nc1ccc(NC(=S)Nc2ccccc2)cc1`, -13.4%. The result for `Cc1ccc(NC(=O)CN(C)C(=O)CN2C(=O)NC(C)(c3ccccc3)C2=O)cc1` (stereo not drawn) reads 1.11%; that for `COC(=O)[C@@H]1[C@H]2C[C@H]3c4[nH]c5ccccc5c4CCN3C[C@@H]2CC[C@@H]1O.Cl`, -22%; that for `CCOC(=O)c1ccc(NC(=S)NC(=O)C2CCCC2)cc1`, 1.18%. `NC(=O)CN(c1ccc(Oc2ccccc2)cc1)S(=O)(=O)c1ccccc1`: the “hERG current change (%, negative = inhibition) at 10uM” value was 2.54%. Regarding `COc1cc([N+](=O)[O-])ccc1NC(=O)Nc1nc2c(s1)CCCC2`, the “hERG current change (%, negative = inhibition) at 10uM” value is recorded as 11.7%.

As for `CCCN(CCC)S(=O)(=O)c1ccc(C(=O)NNc2nc(-c3ccccc3)c3cc(Br)ccc3n2)cc1`, the “hERG current change (%, negative = inhibition) at 10uM” value was determined as 26.2%.

As for `O=C(NCc1ccco1)c1cc(-c2cccs2)on1`, the “hERG current change (%, negative = inhibition) at 10uM” value is -12.6%.

`Cc1cc(C)nc(SCC(=O)NCC2COc3ccccc3O2)n1` (stereo not drawn): the “hERG current change (%, negative = inhibition) at 10uM” value is reported as -0.733%. For `O=C(Nc1ccc(Cl)cc1)Nc1cccc(C(=O)O)c1` the value was 7.8%; for `CCOC(=O)c1ccc(CNC(=O)CSc2nc(NC(=O)c3ccccc3)c3c(C)c(C)oc3n2)cc1`, -4.21%; for `O=C(Nc1ccc2c(c1)OCCO2)c1ccc(Cl)cc1Cl`, 17.3%. For `Cc1onc(-c2ccccc2)c1C(=O)NCc1ccccn1` the value was 8.66%. The result for `C/C=C\C(=O)Nc1cccc(C2=NOC3(C2)C[C@@H](C(N)=O)N(C(=O)c2ccc(OC)cc2)C3)c1` (stereo partly drawn) reads -3.93%. Consider `CCN(CC)C(=O)CN(c1ccc(F)c(Cl)c1)S(C)(=O)=O`, for which the “hERG current change (%, negative = inhibition) at 10uM” value stood at 2.55%. Take `CCC(Sc1ncnc2c1c(-c1ccccc1)cn2-c1ccc(OC)cc1)C(=O)OC` (stereo not drawn): the “hERG current change (%, negative = inhibition) at 10uM” value was -7.16%. For `CCCc1nnc(NC(=O)c2cccc(OC)c2)s1` the value was -2.69%; for `CCCN1CC23C=CC(O2)C(C(=O)O)C3C1=O` (stereo not drawn), 9.39%. The result for `CC(Oc1ccccc1)C(=O)N1CCC2(CC1)CC(=O)c1ccccc1O2` (stereo not drawn) reads -65.7%; that for `COC(=O)c1ccc(-n2c(C)cc(/C=N/n3cnnc3)c2C)cc1`, 4.18%. As to `COc1ccccc1NC(=S)NCc1ccc(F)cc1`, the “hERG current change (%, negative = inhibition) at 10uM” value is recorded as -2.09%. Take `CCc1nc(SCc2ccccn2)c2c(=O)n(C)c(=O)n(C)c2n1`: the “hERG current change (%, negative = inhibition) at 10uM” value amounted to 0.896%.

Take `CSc1ncc(C(=O)O)n1-c1ccc(F)cc1`: the “hERG current change (%, negative = inhibition) at 10uM” value was 3.73%. For `CCC(=O)Nc1ccc(NC(=O)c2cc3ccccc3o2)cc1` the value was -2.45%. The result for `Cc1ccc(SC(C)c2nc(-c3cccnc3)no2)cc1` (stereo not drawn) reads -30.5%.

Turning to `CC(C)(C)NC(=O)/C(=C\c1ccccc1F)NC(=O)c1ccc([N+](=O)[O-])cc1`, the “hERG current change (%, negative = inhibition) at 10uM” value is recorded as -35.3%. On to `Cc1ccc(N=C2NC(=O)CS2)c(C)c1`, for which the “hERG current change (%, negative = inhibition) at 10uM” value was found to be 6.77%. As for `COc1ccc(OCc2cc(C(=O)N3CCN(C4CCCC4)CC3)no2)c(Cl)c1`, the “hERG current change (%, negative = inhibition) at 10uM” value is recorded as -29.6%.

In the case of `CS(=O)(=O)c1cnc(-c2ccccc2)nc1Sc1ccc(F)cc1`, the “hERG current change (%, negative = inhibition) at 10uM” value came out at 8.21%.

For `O=C(NCCN1CCOCC1)C1CCCN(S(=O)(=O)c2ccc(F)cc2)C1` (stereo not drawn), the “hERG current change (%, negative = inhibition) at 10uM” value is on record as -2.52%. The result for `Cc1csc(NC(=O)C2CCN(S(=O)(=O)c3ccc4c(c3)oc(=O)n4C)CC2)n1` reads -11.5%.

Consider `CC(C)CNC(=O)COC(=O)c1cncc(Br)c1`, for which the “hERG current change (%, negative = inhibition) at 10uM” value worked out at 10%. For `O=C(O)CCCn1cc(NC(=O)c2cccc(F)c2)cn1` the value was -18.9%; for `O=C(CCN1N=C(c2ccccc2)CCC1=O)NCCCN1CCOCC1`, 21.2%; for `Cc1cc(C)nc(SCCc2ccncc2)n1.Cl`, 9.82%. For `CCNC(=S)NNC(=O)c1csc2c1CCC(C)C2` (stereo not drawn) the value was 7.64%. For the compound `O=C(NCCSc1ccc(Br)cc1)c1ccccc1`, the “hERG current change (%, negative = inhibition) at 10uM” value is -7.12%. For `COc1ccccc1NC(=S)N(Cc1ccc(C)cc1)Cc1ccccn1` the value was -39.1%.

For the compound `O=C(CNc1ccc(F)cc1Cl)Nc1cccc(S(=O)(=O)N2CCCCC2)c1`, the “hERG current change (%, negative = inhibition) at 10uM” value amounted to 9.81%. The result for `CCCCCCCN1N=C(C)C(C(=O)c2ccccc2)C1=O` (stereo not drawn) reads -5.06%; that for `COc1ccc(NC(=O)C2CCC(=O)N2S(=O)(=O)c2ccc(C)cc2)cc1Cl` (stereo not drawn), 14.9%. In the case of `COc1ccccc1-c1coc2c(CN3CCCC(C)C3)c(O)ccc2c1=O` (stereo not drawn), the “hERG current change (%, negative = inhibition) at 10uM” value was -2.44%. For `COc1cc2c(cc1OC)C(c1cccc([N+](=O)[O-])c1)N(C(=O)c1ccc(F)cc1)CC2` (stereo not drawn) the value was -26.2%. The result for `COC(=O)Cc1ccc(NC(=O)c2cccs2)cc1` reads 8.53%; that for `Cc1ccccc1OCC(=O)OCC(=O)Nc1cc(C(F)(F)F)ccc1N1CCOCC1`, 12.9%. The result for `O=[N+]([O-])c1ccc(-c2csc(N/N=C/c3cccnc3)n2)cc1` reads 57.2%.

For `COc1ccc(C2=NOC(C(=O)Nc3cc(C)nn3-c3ccccc3)C2)cc1OC` (stereo not drawn), the “hERG current change (%, negative = inhibition) at 10uM” value is listed as -13.5%.
